Experimental data taken from patent US20160316790A1, “BETA-HINOKITIOL DERIVATIVES AND APPLICATIONS THEREOF IN PREPARATION OF ANIMAL ANTIBACTERIAL AGENTS AND ANTIBACTERIAL GROWTH PROMOTERS USED IN FEED” (GUANGZHOU INSIGHTER BIOTECHNOLOGY CO., LTD., priority 2013, published 2016).

Test system: riemerella anatipestifer
Test: Protection effect against attacking and infection of riemerella anatipestifer
Settings: intramuscular
Experimental: 100 16-day-old cherry valley ducks were randomly divided into 10 test groups according to table 8. Each duck was injected with riemerella anatipestifer of 5×10^7 CFU via intramuscular injection for the purpose of attacking and infection, and injected with the medicines via intramuscular injection simultaneously. Morbidity and death of the tested ducks were observed, and dead ducks were subject to autopsy to verify whether the death was caused by riemerella anatipestifer infection. The observation lasted for 7 days. All tested ducks were executed at the end of the test. Autopsy were performed to confirm the morbidity. The statistic results can be seen in table 8.

In the case of `CCCc1cccc(=O)c(O)c1` [IST_009_001, 2-hydroxy-4-propylcyclohepta-2,4,6-trienone], the “protection of ducks against attacking and infection of riemerella anatipestifer (in words)” value is reported as “could protect ducks against attacking and infection of riemerella anatipestifer”.
